Test results from paper PMC6035221, “Interaction between parasite-encoded JAB1/CSN5 and macrophage migration inhibitory factor proteins attenuates its proinflammatory function” (Scientific Reports, 2018).
Results are given in words; binding and its absence hold for the method and conditions named. Some results given as binding are weak or reduced against the parent protein; the word gives no strength. Where a sequence is shown, tags or fusion partners need not be part of it.

How the values were obtained:
[1] = target: T1, Entamoeba histolytica MIF (EhMIF), recombinant (Entamoeba histolytica) (UniProt C4LV00); experiment: pull-down; competition: EhMIF pre-incubated 30 minutes with or without 1X, 2X or 5X EhJAB1, then GST-CD74 bound magnetic beads overnight at 4 °C; immunoblot with anti-EhMIF; both purified
T1 sequence: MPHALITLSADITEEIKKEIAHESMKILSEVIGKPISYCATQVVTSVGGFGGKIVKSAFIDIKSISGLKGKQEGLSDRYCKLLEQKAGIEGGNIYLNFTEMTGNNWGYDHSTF

[2] = target: T1, Entamoeba histolytica MIF (EhMIF), recombinant (Entamoeba histolytica); experiment: co-IP; 1.5 µg EhMIF mixed with 500 ng biotinylated tag free EhJAB1, anti-EhMIF rabbit serum or rabbit IgG on Dynabeads, overnight at 4 °C; blot with anti-biotin HRP; both purified
[3] = target: GST-tagged EhJAB1 deletion mutant Δ 6 (deletion of 247–318 aa) (Entamoeba histolytica) (UniProt C4LTS3); experiment: pull-down; GST-EhJAB1 (full length or deletion mutant) or GST from bacterial lysate immobilised on MagneGST magnetic beads, washed, incubated with 1 µg purified EhMIF overnight at 4 °C; immunoblot with anti-EhMIF; both purified
[4] = target: T2, GST-tagged full-length EhJAB1 (Entamoeba histolytica) (UniProt C4LTS3); experiment: as above
T2 sequence: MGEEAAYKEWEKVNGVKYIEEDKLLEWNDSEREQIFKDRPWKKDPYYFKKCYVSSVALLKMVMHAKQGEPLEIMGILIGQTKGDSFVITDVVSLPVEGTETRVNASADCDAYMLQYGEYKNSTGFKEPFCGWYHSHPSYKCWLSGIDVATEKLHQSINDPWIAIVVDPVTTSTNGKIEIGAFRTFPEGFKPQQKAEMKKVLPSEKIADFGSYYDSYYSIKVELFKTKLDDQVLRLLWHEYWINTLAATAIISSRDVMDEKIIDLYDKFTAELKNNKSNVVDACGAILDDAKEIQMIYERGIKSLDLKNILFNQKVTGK

[5] = target: GST-tagged EhJAB1 deletion mutant Δ 4 (deletion of 148–187 aa) (Entamoeba histolytica) (UniProt C4LTS3); experiment: as above
[6] = target: GST-tagged EhJAB1 deletion mutant Δ 3 (deletion of 134–147 aa) (Entamoeba histolytica) (UniProt C4LTS3); experiment: as above
[7] = target: GST-tagged EhJAB1 deletion mutant Δ 1 (deletion of 3–50 aa) (Entamoeba histolytica) (UniProt C4LTS3); experiment: as above
[8] = target: GST-tagged EhJAB1 deletion mutant Δ 2 (deletion of 51–133 aa) (Entamoeba histolytica) (UniProt C4LTS3); experiment: as above
[9] = target: GST-tagged EhJAB1 deletion mutant Δ 5 (deletion of 187–318 aa) (Entamoeba histolytica) (UniProt C4LTS3); experiment: as above

B1: tag free EhJAB1 protein (non-biotinylated) (protein, UniProt C4LTS3 1-318)
chain: T2 sequence
binding [1]: binds

B2: biotinylated tag free EhJAB1 (protein, UniProt C4LTS3 1-318)
chain: T2 sequence
modifications: biotinylated (EZ-Link Sulfo-NHS-LC-Biotinylation kit)
binding [2]: binds

B3: Entamoeba histolytica MIF (EhMIF), recombinant (natural protein)
chain: T1 sequence
binding [3]: binds | binding [4]: binds | binding [5]: binds | binding [6]: binds | binding [7]: binds | binding [8]: binds | binding [9]: no binding
